# In the supplement of paper PMC3334620:
# Over roughly 33,000 sequences, “E-score (-0.5 to 0.5)” has its median near -0.056; the highest 2% begin near 0.38. This is one part of the list.
# Target: Stb4 (UniProt P50104)
# Test: PBM E-score (8-mer binding enrichment) (E-score (-0.5 to 0.5)); higher = stronger / more preferred TF binding; most listed sequences are background and not binding sites
# Details: protein concentration: 200 nM; construct: GST-DNA-binding domain
# Procedure, shortened: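 Detection of bound protein used fluorescent anti-GST, with scans normalised by masliner. The proteins were GST-tagged yeast transcription factors applied at about 100-200 nM to universal all-10-mer Agilent arrays made double-stranded by primer extension. Each ungapped eight-base word, pooled with its reverse complement, was scored with an E-score from the Universal PBM Analysis Suite.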
row,Sequence,PBM E-score
1,AAGGTAAT,-0.0845
2,CGAGGGAC,-0.127
3,GTGATTAA,-0.141
4,GATTCTAC,0.0127
5,ACGGAATC,0.315
6,AAAAGTCG,0.115
7,TCGAGAGA,-0.174
8,GCACGACA,-0.206
9,ATACTCCA,-0.152
10,ACCCTGTG,-0.0916
11,CCCGGTTA,0.28
12,GCAGCCAC,0.0201
13,CGAACTCA,0.0607
14,AAACCAGT,-0.206
15,CGGCCGCA,0.152
16,CAATCTCA,-0.169
17,GCGGTTCC,0.197
18,AAACGCGT,-0.0406
19,AACTCCAT,0.0197
20,ATGACACA,-0.138
21,CTTCCTCA,-0.208
22,AATTGATA,-0.0766
23,CCCCTCTC,-0.0387
24,ATGATCGC,0.0386
25,AGCGGGAA,0.221

row,Sequence,PBM E-score
1,CGGATACA,0.433
2,AATTGACG,-0.0605
3,CCTTAACC,-0.0244
4,CCAGAGCA,0.0101
5,ACGATTAC,-0.287
6,GATTAGGC,-0.183
7,CATGGCCA,-0.248
8,CAGTACCA,-0.249
9,AGATCCTG,-0.136
10,CAGTGGAA,-0.0505
11,GTTACGCA,-0.238
12,CCGCATCA,0.136
13,ATTCTATA,0.0665
14,TCCTATCA,-0.218
15,ATACGCTG,-0.00378
16,CTAAGGTC,-0.262
17,GGACGAGA,-0.0521
18,CATGGGCG,-0.0118
19,CTACAAGC,-0.258
20,ACAAAATG,-0.118
21,GGTAGCGA,0.0366
22,CTCGTTCC,0.262
23,ATTCGTAA,-0.17
24,GATACCGC,0.154
25,ATCATGTA,-0.336

row,Sequence,PBM E-score
1,CGAGACCA,0.0434
2,CGTCACAA,0.0479
3,CAGTTAGA,-0.0952
4,AAGAACTC,-0.0745
5,GCCTGAGA,0.0275
6,ATGTCATG,-0.158
7,GCAAGCAC,-0.288
8,TATACACA,-0.228
9,ACACGGTA,0.0561
10,ACAACGGT,-0.14
11,TAGCTGCA,-0.234
12,ATATGGGC,-0.0282
13,AAACGATG,-0.0183
14,CCACCGAC,0.0739
15,AATCCTGC,-0.102
16,AAAGAGAT,-0.153
17,TACAGATA,0.125
18,GAAGAGCA,-0.15
19,ACGCGCAC,-0.0738
20,CTTGCTTA,-0.105
21,CAAGAGCA,-0.195
22,ATCCACCA,-0.0567
23,CCACGCAA,-0.116
24,GAAAAGGC,0.0682
25,ATATGCCA,-0.0602

row,Sequence,PBM E-score
1,AACCCGGT,0.18
2,TACACCGA,0.241
3,TCAACAAA,0.0952
4,GTGCCTGA,0.0135
5,AACACATA,-0.27
6,AAAACGGG,0.267
7,AGGCAGCC,-0.0544
8,AATTGGGG,-0.154
9,GAAGCTCA,-0.114
10,CGCCTCCC,-0.0433
11,AGAATGAA,-0.0545
12,TAGTTGGA,0.0791
13,AGACGGTA,-0.0458
14,TCGGCTAA,0.455
15,AACCCGTT,0.0797
16,GCTCAGAC,-0.19
17,ACTCGAGT,-0.303
18,CACCCAGC,0.0106
19,ACTAAGCT,-0.264
20,CACCACCG,0.143
21,AGACTGCC,-0.0159
22,AGCCAGTC,-0.0537
23,CCGTGGGC,0.207
24,AGAAGCGG,0.0719
25,AGTATGAA,0.108

row,Sequence,PBM E-score
1,AGTTTGAG,-0.092
2,ACTACAGG,-0.0576
3,CAGAGGGC,-0.151
4,ACTCGGAC,0.327
5,ATGACGAA,-0.22
6,CTACCAGC,-0.334
7,AAGTCCCC,-0.0961
8,CATAGTAG,-0.144
9,CTATGAGC,-0.173
10,TAGCTAGA,-0.202
11,AAGTACGG,0.0722
12,AACCCGGG,0.317
13,GAGGGTGA,-0.109
14,AATGCCGC,0.143
15,CGGCACCG,0.324
16,GAACAACC,0.0669
17,CACGACTC,-0.181
18,CAAACTTG,-0.0139
19,CAATGCTC,-0.0798
20,ATTGTAAG,-0.122
21,GCAGTCGC,-0.26
22,GGCCGTGA,0.125
23,ATAGGGGA,-0.156
24,GACGTTGC,-0.00479
25,ATATGCGC,-0.117

row,Sequence,PBM E-score
1,ATATCATA,0.0484
2,ATGAGGCA,-0.224
3,CTTATAGC,-0.08
4,CATCCAAC,-0.212
5,AGGTACCC,-0.121
6,CAAACCGC,-0.00183
7,ACGCGCAA,0.0934
8,GTGACTCA,-0.292
9,GCAGTCAC,-0.084
10,ACCACCTG,-0.13
11,AATTGTTG,-0.19
12,CACTCATA,-0.149
13,CGATGCCA,-0.039
14,ACAGATTG,-0.0283
15,GATAAAGA,-0.0874
16,AAGGGCTC,-0.177
17,AGTACAGG,-0.0479
18,GCGAAAGC,-0.141
19,ATAATGTC,0.151
20,AGCATTTG,-0.0601
21,AAAGAAGG,-0.197
22,CCGTAACA,0.0635
23,CGGCTGGC,0.182
24,ACACGACG,-0.261
25,ATTTGTCA,-0.12

row,Sequence,PBM E-score
1,ATGTAAGA,-0.0823
2,ACTTCCAA,-0.19
3,ATGCACAT,-0.0577
4,CCGGGGAG,0.218
5,ACCAGGGA,-0.271
6,ACTAGAAT,-0.161
7,AACTATGT,-0.255
8,AATCAAGT,-0.169
9,CTACACAG,-0.315
10,GTAGGCAC,0.103
11,ACTTTCGG,0.416
12,AACGATTC,-0.0366
13,CAAGTCGG,0.267
14,ACCCTTCG,0.0471
15,ACTTCAAA,-0.103
16,CAAAGTAA,0.0795
17,AATTTGGA,-0.235
18,ACCAATGC,-0.00399
19,AGAATTGG,-0.161
20,CCGGAAAA,0.441
21,CGATATAA,0.0437
22,CCATCCGG,0.332
23,CGCGGTAC,0.312
24,TACATCCA,-0.202
25,TCATAAGA,-0.0249

row,Sequence,PBM E-score
1,ACCGAGTG,0.165
2,TAATTTCA,-0.0126
3,CCTGGGCC,-0.0612
4,AGGCTGCG,-0.162
5,CCAGTAAA,-0.0636
6,GACTCTAA,-0.095
7,AGTATTCA,-0.0817
8,TCATCCCA,-0.181
9,CCGGATAG,0.424
10,ACCAAAAG,-0.227
11,AATGCAGC,-0.19
12,GGGGCATA,-0.103
13,CGAAAAAG,0.151
14,ACGCCCGA,0.245
15,ACTTCCCA,-0.158
16,GCATCAAC,0.0461
17,AAAATTTA,-0.0837
18,CCTGTAAG,-0.283
19,CGACCGGA,0.31
20,GTGGAAGA,0.00601
21,TATTGAGA,-0.0948
22,ACCGGCGG,0.23
23,CCTTTAAG,-0.139
24,ACTGGCGG,0.12
25,GTAAGTCA,-0.109

row,Sequence,PBM E-score
1,CTAGGTGC,-0.0833
2,ACAGAGAA,-0.0546
3,CGGCCGAC,0.232
4,TCTGAACA,-0.137
5,CTATTAGA,-0.12
6,CCAATAGG,-0.217
7,ATGGTCTA,-0.224
8,GAAACGTC,0.0218
9,CTCGCATA,-0.176
10,ACTAGTCA,-0.19
11,AAGGGTTG,-0.175
12,AAGTTACC,0.226
13,CCGGCCCA,0.17
14,CTACGAAC,-0.233
15,CCCGATAC,0.287
16,GTGCCAAA,-0.0603
17,AAATATCA,-0.167
18,ATACAGAT,-0.185
19,AGTTATGA,-0.0314
20,ATCGAGTA,-0.151
21,CTTTGTGC,-0.138
22,TCCACTCA,-0.176
23,CCGCATTA,0.236
24,ATACCCTC,0.0255
25,AAAATAAA,-0.0248

row,Sequence,PBM E-score
1,GTGTGCGA,-0.083
2,CGGTCGAC,0.192
3,GTTGAGGA,-0.0286
4,TGATGCCA,-0.229
5,CGGTTGTA,0.098
6,ATTCAAAA,-0.0787
7,CGGCGAAC,0.248
8,AGAGTGAT,-0.165
9,GTTAATTA,0.153
10,CTTTAACA,0.0915
11,AGCCGGGA,0.323
12,ATGTCAGC,0.0161
13,ACGGTTCT,-0.182
14,ATGTTCTC,-0.107
15,CTACTTTC,0.0381
16,AACGGACG,0.0294
17,CGCGGCGA,0.135
18,AGCGAAGA,-0.208
19,AAGCTCCG,0.382
20,CCCGTTAC,0.161
21,TCGTCAAA,-0.0816
22,AAACACAG,0.0157
23,CTACGGTA,0.121
24,ACGAACTA,-0.194
25,CTCTTCAA,-0.101

row,Sequence,PBM E-score
1,AAACTGAC,0.0164
2,GATTTTCC,0.166
3,ACTAATAG,-0.0229
4,GTACTGTA,-0.171
5,ATGGCGAC,-0.0739
6,TCGGTCCA,0.2
7,CTTGTTAA,0.0614
8,AACTGCCT,-0.0357
9,CGTACGAA,0.0522
10,ATCCCCTC,-0.134
11,AAACTGTC,-0.164
12,CGGGGTGC,0.137
13,GAAGAAGA,0.0699
14,CTGCTGTA,-0.058
15,GAGATGTA,0.126
16,CCTGCTTA,-0.146
17,AAACTGCT,-0.213
18,CAGTTAAC,0.0713
19,GCTGCCCC,-0.0108
20,AGGCATGG,-0.023
21,ACCCATAA,0.088
22,AGATCGAG,-0.138
23,GCCCCCTA,-0.156
24,AGTGCCTG,-0.0659
25,AGCATGCC,-0.017

row,Sequence,PBM E-score
1,GGAAGTCA,0.159
2,CACGCTAA,-0.069
3,CGCCCGCA,0.103
4,AATGCTTA,-0.283
5,AAACGAGA,-0.0143
6,GGGGTCAA,-0.014
7,ACTTTCTC,0.0197
8,GTCGATCA,-0.154
9,GGTTTCAA,0.0851
10,GCCCGGTA,0.263
11,ATTCGTTA,-0.121
12,AATCTTGA,-0.242
13,ATTTTCCG,0.424
14,CGTAAATA,0.059
15,ATTGAGCG,-0.105
16,CGGACTGC,0.0974
17,AATGCATG,-0.0311
18,AAGCCATG,-0.117
19,ATGTTAAC,-0.0494
20,AGTCTCAG,-0.223
21,ATCTACTA,-0.0028
22,ACTGTTTA,-0.241
23,GACACCGA,0.16
24,AGCAGCTA,-0.247
25,AACATAAG,0.0445

row,Sequence,PBM E-score
1,AACCCACC,0.137
2,CACTCAGG,-0.181
3,GATACTTA,0.113
4,CCAATCGA,-0.207
5,TGGCAGAA,-0.125
6,CCCTGTTC,-0.112
7,GATCCCCA,-0.0239
8,CGAATCTA,-0.0261
9,CAACTGGG,-0.134
10,GAGCACAC,-0.207
11,ATCTCGCG,-0.0115
12,CTTCCAAG,-0.132
13,GTTGCATA,-0.069
14,ATATGGAC,-0.185
15,CCCATTCC,0.104
16,GCAGGCCC,-0.0954
17,CTTCAACC,-0.0399
18,AAGATTAG,-0.11
19,AAACTCCC,0.212
20,AATCGCTA,-0.134
21,CCTAAAGC,-0.246
22,TGAACTCA,-0.222
23,GCCCTGAA,-0.131
24,GGGAGTAC,0.0576
25,ATCCATAC,-0.121

row,Sequence,PBM E-score
1,ACCCAACG,-0.0446
2,ATGAAATA,0.0478
3,GGGTAGAA,0.173
4,ACACCGTC,0.0889
5,AGCGCCCG,0.122
6,CTAGTAGA,0.0929
7,CTTGGGAA,-0.0852
8,CACGGCCC,0.0623
9,AATAGAAC,-0.0574
10,GCGTTGAA,-0.047
11,CCGCGCCA,0.0769
12,CAGTTGAC,-0.0683
13,ATTTTCGA,-0.256
14,GATGTCCC,0.183
15,GCCTTAGC,-0.222
16,GTGGTCTA,-0.185
17,CCTAACCC,-0.149
18,GTCAGGAC,-0.21
19,AACTAGAA,-0.167
